Results published in patent US20250333542A1 (Hoffmann-La Roche, published 2025).

T1: Fc (kih)-IFNGR1/2 heterodimer (P1AF8126) (UniProt P15260 18-245; P38484 28-247, limits assumed)
T1 construct: Used as the soluble analyte in SPR; also called Fc (kih)-IFNGR1/R2 heterodimer; IFNGR1/R2; not shown: Fc (kih) chain
T1 sequence (looked up) 1: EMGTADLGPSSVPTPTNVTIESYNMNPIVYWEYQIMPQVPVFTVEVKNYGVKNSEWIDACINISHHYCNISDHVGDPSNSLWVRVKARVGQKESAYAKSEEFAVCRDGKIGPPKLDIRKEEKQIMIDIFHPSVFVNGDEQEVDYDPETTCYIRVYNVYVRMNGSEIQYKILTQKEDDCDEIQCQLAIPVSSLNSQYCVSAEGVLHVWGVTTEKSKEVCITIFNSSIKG
T1 sequence (looked up) 2: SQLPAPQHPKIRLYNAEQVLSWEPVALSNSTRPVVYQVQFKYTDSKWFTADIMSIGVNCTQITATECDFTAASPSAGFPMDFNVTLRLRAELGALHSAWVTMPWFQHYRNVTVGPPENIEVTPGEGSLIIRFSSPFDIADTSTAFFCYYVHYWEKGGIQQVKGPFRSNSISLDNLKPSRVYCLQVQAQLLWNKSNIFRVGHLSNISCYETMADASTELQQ

T2: Fc (kih)-IFNGR1 monomer (P1AF7104) (UniProt P15260 18-245)
T2 construct: Used as the soluble analyte in SPR; not shown: Fc (kih) part
T2 sequence (P15260 whole entry, species assumed, looked up): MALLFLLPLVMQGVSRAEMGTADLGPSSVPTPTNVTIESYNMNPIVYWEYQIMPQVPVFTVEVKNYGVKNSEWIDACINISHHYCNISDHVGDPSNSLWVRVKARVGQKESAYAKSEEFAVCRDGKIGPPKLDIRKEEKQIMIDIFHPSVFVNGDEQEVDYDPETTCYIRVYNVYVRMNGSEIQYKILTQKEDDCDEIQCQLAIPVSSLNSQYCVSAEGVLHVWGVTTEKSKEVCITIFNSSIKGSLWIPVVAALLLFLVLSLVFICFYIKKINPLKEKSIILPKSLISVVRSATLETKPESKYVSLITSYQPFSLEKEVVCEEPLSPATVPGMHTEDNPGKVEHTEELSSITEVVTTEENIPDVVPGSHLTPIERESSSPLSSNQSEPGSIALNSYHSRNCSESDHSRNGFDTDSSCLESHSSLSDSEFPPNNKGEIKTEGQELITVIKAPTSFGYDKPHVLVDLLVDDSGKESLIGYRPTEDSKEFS

B1: P1AF9480 (anti-FAP 4B9 IgG-IFNG, C-terminus AKTGKRPPP) (other)
heavy: EVQLLESGGGLVQPGGSLRLSCAASGFTFSSYAMSWVRQAPGKGLEWVSAIIGSGASTYYADSVKGRFTISRDNSKNTLYLQMNSLRAEDTAVYYCAKGWFGGFNYWGQGTLVTVSSASTKGPSVFPLAPSSKSTSGGTAALGCLVKDYFPEPVTVSWNSGALTSGVHTFPAVLQSSGLYSLSSVVTVPSSSLGTQTYICNVNHKPSNTKVDKKV[human IgG1 Fc with changes skipped]GGGGSGGGGSGGGGSQDPYVKEAENLKKYFNAGHSDVADNGTLFLGILKNWKEESDRKIMQSQIVSFYFKLFKNFKDDQSIQKSVETIKEDMNVKFFNSNKKKRDDFEKLTNYSVTDLNVQRKAIHELIQVMAELSPAAKTGKRPPP
light: EIVLTQSPGTLSLSPGERATLSCRASQSVTSSYLAWYQQKPGQAPRLLINVGSRRATGIPDRFSGSGSGTDFTLTISRLEPEDFAVYYCQQGIMLPPTFGQGTKVEIKRTVAAPSVFIFPPSDEQLKSGTASVVCLLNNFYPREAKVQWKVDNALQSGNSQESVTEQDSKDSTYSLSSTLTLSKADYEKHKVYACEVTHQGLSSPVTKSFNRGEC
notes: Antibody-cytokine fusion, IgG1 P329G LALA, (G4S)3 linker; P in positions 3 and 4 of KRKR
B2: P1AF9487 (anti-FAP 4B9 IgG-IFNG, C-terminus AKTGEEKRP) (other)
heavy: EVQLLESGGGLVQPGGSLRLSCAASGFTFSSYAMSWVRQAPGKGLEWVSAIIGSGASTYYADSVKGRFTISRDNSKNTLYLQMNSLRAEDTAVYYCAKGWFGGFNYWGQGTLVTVSSASTKGPSVFPLAPSSKSTSGGTAALGCLVKDYFPEPVTVSWNSGALTSGVHTFPAVLQSSGLYSLSSVVTVPSSSLGTQTYICNVNHKPSNTKVDKKV[human IgG1 Fc with changes skipped]GGGGSGGGGSGGGGSQDPYVKEAENLKKYFNAGHSDVADNGTLFLGILKNWKEESDRKIMQSQIVSFYFKLFKNFKDDQSIQKSVETIKEDMNVKFFNSNKKKRDDFEKLTNYSVTDLNVQRKAIHELIQVMAELSPAAKTGEEKRP
light: B1 light
notes: Antibody-cytokine fusion, IgG1 P329G LALA, (G4S)3 linker; E in positions 1 and 2 of KRKR
B3: P1AF9479 (anti-FAP 4B9 IgG-IFNG, C-terminus AKTGPPKRP) (other)
heavy: EVQLLESGGGLVQPGGSLRLSCAASGFTFSSYAMSWVRQAPGKGLEWVSAIIGSGASTYYADSVKGRFTISRDNSKNTLYLQMNSLRAEDTAVYYCAKGWFGGFNYWGQGTLVTVSSASTKGPSVFPLAPSSKSTSGGTAALGCLVKDYFPEPVTVSWNSGALTSGVHTFPAVLQSSGLYSLSSVVTVPSSSLGTQTYICNVNHKPSNTKVDKKV[human IgG1 Fc with changes skipped]GGGGSGGGGSGGGGSQDPYVKEAENLKKYFNAGHSDVADNGTLFLGILKNWKEESDRKIMQSQIVSFYFKLFKNFKDDQSIQKSVETIKEDMNVKFFNSNKKKRDDFEKLTNYSVTDLNVQRKAIHELIQVMAELSPAAKTGPPKRP
light: B1 light
notes: Antibody-cytokine fusion, IgG1 P329G LALA, (G4S)3 linker; P in positions 1 and 2 of KRKR
B4: P1AF9473 (anti-FAP 4B9 IgG-IFNG, C-terminus AKTGSRSRP) (other)
heavy: EVQLLESGGGLVQPGGSLRLSCAASGFTFSSYAMSWVRQAPGKGLEWVSAIIGSGASTYYADSVKGRFTISRDNSKNTLYLQMNSLRAEDTAVYYCAKGWFGGFNYWGQGTLVTVSSASTKGPSVFPLAPSSKSTSGGTAALGCLVKDYFPEPVTVSWNSGALTSGVHTFPAVLQSSGLYSLSSVVTVPSSSLGTQTYICNVNHKPSNTKVDKKV[human IgG1 Fc with changes skipped]GGGGSGGGGSGGGGSQDPYVKEAENLKKYFNAGHSDVADNGTLFLGILKNWKEESDRKIMQSQIVSFYFKLFKNFKDDQSIQKSVETIKEDMNVKFFNSNKKKRDDFEKLTNYSVTDLNVQRKAIHELIQVMAELSPAAKTGSRSRP
light: B1 light
notes: Antibody-cytokine fusion, IgG1 P329G LALA, (G4S)3 linker; S in positions 1 and 3 of KRKR
B5: P1AF9475 (anti-FAP 4B9 IgG-IFNG, C-terminus AKTGPRKRP) (other)
heavy: EVQLLESGGGLVQPGGSLRLSCAASGFTFSSYAMSWVRQAPGKGLEWVSAIIGSGASTYYADSVKGRFTISRDNSKNTLYLQMNSLRAEDTAVYYCAKGWFGGFNYWGQGTLVTVSSASTKGPSVFPLAPSSKSTSGGTAALGCLVKDYFPEPVTVSWNSGALTSGVHTFPAVLQSSGLYSLSSVVTVPSSSLGTQTYICNVNHKPSNTKVDKKV[human IgG1 Fc with changes skipped]GGGGSGGGGSGGGGSQDPYVKEAENLKKYFNAGHSDVADNGTLFLGILKNWKEESDRKIMQSQIVSFYFKLFKNFKDDQSIQKSVETIKEDMNVKFFNSNKKKRDDFEKLTNYSVTDLNVQRKAIHELIQVMAELSPAAKTGPRKRP
light: B1 light
notes: Antibody-cytokine fusion, IgG1 P329G LALA, (G4S)3 linker; P in position 1 of KRKR
B6: P1AF9481 (anti-FAP 4B9 IgG-IFNG, C-terminus AKTGPRPRP) (other)
heavy: EVQLLESGGGLVQPGGSLRLSCAASGFTFSSYAMSWVRQAPGKGLEWVSAIIGSGASTYYADSVKGRFTISRDNSKNTLYLQMNSLRAEDTAVYYCAKGWFGGFNYWGQGTLVTVSSASTKGPSVFPLAPSSKSTSGGTAALGCLVKDYFPEPVTVSWNSGALTSGVHTFPAVLQSSGLYSLSSVVTVPSSSLGTQTYICNVNHKPSNTKVDKKV[human IgG1 Fc with changes skipped]GGGGSGGGGSGGGGSQDPYVKEAENLKKYFNAGHSDVADNGTLFLGILKNWKEESDRKIMQSQIVSFYFKLFKNFKDDQSIQKSVETIKEDMNVKFFNSNKKKRDDFEKLTNYSVTDLNVQRKAIHELIQVMAELSPAAKTGPRPRP
light: B1 light
notes: Antibody-cytokine fusion, IgG1 P329G LALA, (G4S)3 linker; P in positions 1 and 3 of KRKR

Experiments:
[1] = biological target: T1, Fc (kih)-IFNGR1/2 heterodimer (P1AF8126); assay: SPR, compound immobilised, Fc(kih)-IFNGR1/2 heterodimer as analyte; apparent affinity
Method: (§1) The binding behaviour of IFNG variants towards IFNGR1 and IFNGR1/2 was assessed by surface plasmon resonance (SPR). SPR experiments were performed on a Biacore 8K device at 25° C. with HBS-EP as running buffer (0.01 M HEPES pH 7.4, 0.15 M NaCl, 3 mM EDTA, 0.005% Surfactant P20, Biacore, Freiburg/Germany). […] IFNG mutation series compounds were immobilised at a concentration of 25 nM, 80 s contact time and 10 μL/min. Immobilisation levels up to 450 resonance units (RU) were used. Subsequently, decreasing concentrations (800-3.13 nM) of Fc (kih)-IFNGR1 monomer or Fc (kih)-IFNGR1/2 heterodimer were injected as a second analyte with a flow rate of 30 μL/min over 120 seconds and dissociation was monitored for 500 s. Bulk refractive index differences were corrected for by subtracting the response obtained in a reference flow cell, where no protein was immobilised. The affinity constants were derived from the rate constants by fitting to a 1:1 Langmuir binding.
(§2) To measure binding affinities, compounds of the mutation series were immobilised in the flow cell. As a second analyte Fc (kih)-IFNGR1 monomer or Fc (kih)-IFNGR1/R2 heterodimer were passed through the flow cell and binding affinities (KD) were calculated based on observed association and dissociation constants. Already single point mutations reduced the apparent binding affinities towards the receptors compared to the compound with C-terminal KRKRP.

[2] = biological target: T2, Fc (kih)-IFNGR1 monomer (P1AF7104); assay: SPR, compound immobilised, Fc(kih)-IFNGR1 monomer as analyte; apparent affinity
Method: as §1, §2

| Binder | Kd [1] | Kd [2] |
| --- | --- | --- |
| B1 | 683 nM | 1420 nM |
| B2 | 1750 nM |  |
| B3 | 204 nM | 3600 nM |
| B4 | 793 nM | 1100 nM |
| B5 | 320 nM | 643 nM |
| B6 | 486 nM | 977 nM |
